Some test systems named below: SNB-75 CNS; HL-60(TB) leukemia; SNB-19 CNS; NCI-H522 lung; CCRF-CEM leukemia; UACC-62 melanoma; SR leukemia; M14 melanoma; MOLT-4 leukemia; K-562 leukemia.
Assay in all cases: DTP human tumour cell line panel, 48 h

Each structure is given as a SMILES string.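 96-well plates; 48 h exposure; 5 concentrations. Endpoints by linear interpolation between flanking doses. Not reached: highest tested concentration assigned. GI50 marks 50% less growth.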 A number of entries come with more than one value. This is not the full list of results. The source may hold further records. The tests behind the records often covered other concentration ranges, which the source does not state; some values may only mark the edge of a range.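 TGI is the concentration that stops growth completely.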

From PubChem BioAssay (NCI) come the findings set out here.

In general, GI50 refers to the concentration that inhibits growth by half. Read a high GI50 as less potent growth inhibition. For orientation: TGI means the concentration at which net growth stops.

For `O=C(NNc1nc2cc(F)cc(F)c2n2cccc12)c1cccnn1`, in the assay with SNB-75 CNS, the GI50 is 120 nM and 1.27 µM. Besides, the concentration for total growth inhibition (TGI) with HL-60(TB) leukemia was 30 µM and 1.12 µM; with SNB-19 CNS, 9.21 µM and > 100 µM; in the assay on NCI-H522 lung, 11.5 µM and 940 nM; in the assay with CCRF-CEM leukemia, 30 µM and 362 nM; with UACC-62 melanoma it was 1.22 µM and 13.5 µM; in the assay on SR leukemia it was 30 µM and 859 nM. The TGI with M14 melanoma was 755 nM and 10.2 µM; in the assay with MOLT-4 leukemia, 30 µM and 1.74 µM; in the assay with K-562 leukemia, 30 µM and 1.31 µM.
